The values below come from the RNAGym collection of RNA variant scans (doi:10.1101/gad.245936.114).

Variants at the floor of the assay are shown more often than the library holds them.

B1: tRNA (parent)
chain: CUCUCGGUAGCCAAGUUGGUUUAAGGCGCAAGACUUUAAUUUAUCACUACGAAAUCUUGAGAUCGGGCGUUCGACUCGCCCCCGGGAGAUUUUUUCCUCGAGCAA

This data set covers variants of B1. Kind of data set: nonsense suppression (GFP-seq) (ratio to wild type); higher = more function; SUP4oc tRNA, yeast GFP reporter sort-seq. The method, boiled down:
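Yeast carrying genome-integrated SUP4oc tRNA variants from a library with ~3% random mutations were grown in raffinose/galactose medium with 80 mg/L adenine. Each strain also carried a galactose-driven GFP ochre reporter and RFP. Cells were sorted into GFP/RFP bins, and each bin was Illumina-sequenced (phred ≥30). Nonsense suppression (GFPSEQ) is the bin median GFP/RFP, weighted by each variant's estimated cell share per bin, relative to wild-type SUP4oc; variants needed ≥100 reads and ≥30 cells.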
Regarding C72G G86U, the nonsense suppression is no more than 0.026.

As to A9C G59C G61C G84A, the nonsense suppression was no more than 0.026. Take U8A A9G: the nonsense suppression was found to be 0.0277.

Consider C3G A23C C72G C80U, for which the nonsense suppression is no more than 0.026. Take C72A C80A: the nonsense suppression is no more than 0.026. Regarding C12U G65C, the nonsense suppression was no more than 0.026.

On to U2A G73A, for which the nonsense suppression stood at 0.0508.

Turning to G19U C27G G28A C68U G85U, the nonsense suppression was no more than 0.026. Next, C1A A9U C68G U76A C81A: no more than 0.026; A31G G67C C72U: no more than 0.026; U2C A87U: no more than 0.026. Next, C1A U16C G18A C64G: no more than 0.026; U22G C68A G73C: no more than 0.026; A31C U35G U76G A87G: no more than 0.026. Next, A14U C80A: no more than 0.026; A14U U35A U76G C81U: no more than 0.026. As for C3A C5G A23C, the nonsense suppression was no more than 0.026. Take G19A G66U U70G: the nonsense suppression was no more than 0.026.

As for A24G U57A C79G, the nonsense suppression is no more than 0.026. Next, A33U G61A G73U: no more than 0.026; G15C G25U A60C A87C: no more than 0.026; G15U C27G C77A G85A: no more than 0.026. Next, A24U G59U G67A: no more than 0.026.

With G18A C56A G59A, the nonsense suppression is no more than 0.026. U8G G84A: the nonsense suppression is no more than 0.026. Turning to U4A U20C A31U U71G C80A, the nonsense suppression is no more than 0.026. For G7U A30U C34U G65U the value was no more than 0.026; for U16C G18U C27A G59U A60C U70G, no more than 0.026.

With A9C G28C U71A, the nonsense suppression is no more than 0.026. For C29G G69U A87C the value was no more than 0.026; for C1G G86A, no more than 0.026; for C34A U57C G86A, no more than 0.026. As to A62U A89C, the nonsense suppression is no more than 0.026. Regarding C1U A74C, the nonsense suppression is no more than 0.026.

G10A U55A C56A: the nonsense suppression is no more than 0.026.

Take A14G A24C A31G C56G: the nonsense suppression is no more than 0.026. A23C G61U G69A U70G: the nonsense suppression was no more than 0.026.

For the variant U17G C80G, the nonsense suppression was no more than 0.026. Regarding G25A A54U U71G, the nonsense suppression is no more than 0.026.

Consider C5G U8C G88A, for which the nonsense suppression is no more than 0.026. In the case of C5A U21C C34A, the nonsense suppression was no more than 0.026. G32A U63C G67A: the nonsense suppression is no more than 0.026. For C3A U8G G88A the value was no more than 0.026; for C34U U35G C79G, no more than 0.026. Turning to C11U G26A C29U A62C, the nonsense suppression is no more than 0.026. Take U4C G28C C79G: the nonsense suppression is no more than 0.026. Turning to G61C G66A, the nonsense suppression is no more than 0.026.

With C3U A89U, the nonsense suppression was no more than 0.026.

For U20G A23C C29U U35G U71A, the nonsense suppression is no more than 0.026. For C11U U57G U76A G85U A87G the value was no more than 0.026; for A9C U22C C29A G85U, no more than 0.026.

As to A24C G25U U63C G73U, the nonsense suppression is no more than 0.026. For U2G G26A the value was no more than 0.026. For U8A A13U G19A A62G G67A U71C the value was no more than 0.026; for U16C G19A U20A C34G A54G A60C C68G G69C, no more than 0.026. With C1A U4C U76C G78A, the nonsense suppression was no more than 0.026.

Take G6C A54C: the nonsense suppression is no more than 0.026.

On to C5G A14G, for which the nonsense suppression is no more than 0.026. On to C11U C68G, for which the nonsense suppression was no more than 0.026. Regarding G6U U55C A89G, the nonsense suppression was no more than 0.026. Regarding A24C G84A, the nonsense suppression turned out to be 0.478. For G15C C29U G86A the value was no more than 0.026; for C29U U57A U63G, no more than 0.026. For G18A C79G the value was no more than 0.026; for C12G G18C, no more than 0.026. With C3G U76A, the nonsense suppression is no more than 0.026. Next, C56U G88U: no more than 0.026; A23G G26U A33G C34U G59A: no more than 0.026; G15U A33G: no more than 0.026. Next, C3A U20G A30C A33G G69C G73C: no more than 0.026; G61A C72A: 0.0325. Next, U57C A74C: no more than 0.026; C3A U58G C79A: no more than 0.026. With G69C A74G, the nonsense suppression is no more than 0.026. G6C U20G U22A: the nonsense suppression is no more than 0.026. Turning to U8G C11A, the nonsense suppression was no more than 0.026. Turning to A13G G15U U22G C72U, the nonsense suppression was no more than 0.026.

On to U21C A31G G85A G88C, for which the nonsense suppression was no more than 0.026.

As to A62G G78U, the nonsense suppression is 0.0339.

U55A G61A G73A: the nonsense suppression was no more than 0.026. As to G10U U63C G78A, the nonsense suppression was no more than 0.026. Next, A31U G61C: no more than 0.026; A30G G65C C80U: no more than 0.026. G26U C27U: the nonsense suppression is no more than 0.026. Consider C12U U21C A30C A33U, for which the nonsense suppression was no more than 0.026. Regarding A9G U57G U58A C80A, the nonsense suppression is no more than 0.026. As for A23U U57A C64A U70A, the nonsense suppression was no more than 0.026. On to A13C G15C G18C, for which the nonsense suppression was no more than 0.026. For the variant U57A G84C, the nonsense suppression was no more than 0.026. Consider C5A A60C C79A, for which the nonsense suppression is no more than 0.026. Turning to G59U A62G, the nonsense suppression is no more than 0.026. For the variant U8A G15U U55C, the nonsense suppression is no more than 0.026. For C11A C27U C79U, the nonsense suppression was no more than 0.026. For G7U C27U G65C the value was no more than 0.026; for G19U G25C G73C, no more than 0.026.

For C11G G67A G69U, the nonsense suppression was no more than 0.026. For the variant C5U A13U A23U G88C, the nonsense suppression is no more than 0.026. For U4G G6U U8C C12G C29A C56G the value was no more than 0.026; for C5G A33C C77G A87G, no more than 0.026.

As for U17C A87U, the nonsense suppression was no more than 0.026.

In the case of C3U C5A G10U A13C G28A U58G A89G, the nonsense suppression was no more than 0.026. Take A9G G10A: the nonsense suppression was 0.0344.

As to U16G U22G C27G C34U U35G, the nonsense suppression is no more than 0.026. As to G65C G85A A87C, the nonsense suppression is no more than 0.026. C3U G7C: the nonsense suppression is no more than 0.026.

As for C1U G7A A62C U71C, the nonsense suppression is no more than 0.026. As to U2C A31G A54G U57G A60C, the nonsense suppression was no more than 0.026. With G18A A74G, the nonsense suppression is no more than 0.026. As for U4A G7U A31G, the nonsense suppression is no more than 0.026. Regarding A9G C64G, the nonsense suppression is no more than 0.026.

As for C3U G7U U21A U55A A74U G86C, the nonsense suppression was no more than 0.026. In the case of C5G G6C U70C, the nonsense suppression was no more than 0.026.

With U4A U8A U16G G86U, the nonsense suppression was no more than 0.026. Take G7A C82G: the nonsense suppression is no more than 0.026. Consider U4A G26U, for which the nonsense suppression was no more than 0.026. With U4C A24C U55G A62C U71A U76A, the nonsense suppression is no more than 0.026. As to A14G G85A G86C, the nonsense suppression was no more than 0.026.

In the case of U4A U21A G66U, the nonsense suppression is no more than 0.026. On to A54U A60C U71C C82A, for which the nonsense suppression is no more than 0.026. In the case of C1U U16A, the nonsense suppression is no more than 0.026. In the case of U21G U70A U76G, the nonsense suppression is no more than 0.026.

G26C C27G: the nonsense suppression is no more than 0.026. With U2A C64U G86U A89U, the nonsense suppression was no more than 0.026. As to U22G G65C, the nonsense suppression was no more than 0.026. For C1A A60C G88C the value was no more than 0.026; for U16G A60G, 0.39. For G18C A54C G84U the value was no more than 0.026. For C3G C12U A54U the value was no more than 0.026. On to G18A U71C G73A, for which the nonsense suppression is no more than 0.026.

As for G28C U55C, the nonsense suppression was 0.183. In the case of A30U G67A G73U C81A, the nonsense suppression is no more than 0.026. With U17G C79G, the nonsense suppression is no more than 0.026. For A23C C75U G88A the value was no more than 0.026; for G10U A33C, no more than 0.026; for U20C, 0.848.

Consider G7C A9G U16C C56G G69C, for which the nonsense suppression was no more than 0.026. In the case of C1U U17C C81G, the nonsense suppression was no more than 0.026.

On to U2C U17G A31G A54C, for which the nonsense suppression is no more than 0.026. A13G U17G U71G: the nonsense suppression is no more than 0.026. In the case of G25U A33G, the nonsense suppression was no more than 0.026.

For G78A C81U G88A, the nonsense suppression was no more than 0.026. A24C A30G A31C U76C: the nonsense suppression is no more than 0.026. For U8C G18C C27U U55C G65A the value was no more than 0.026; for A33U G84U, no more than 0.026; for G15C A30G, no more than 0.026. For C1U U20G A30G G59C the value was no more than 0.026; for G15U G25C U55G U70G, no more than 0.026. For the variant C3A G84A, the nonsense suppression was no more than 0.026. Next, U17A A89C: no more than 0.026.

Take U8A U58A U70G: the nonsense suppression is no more than 0.026.

As for C5A A23U A24C G28A, the nonsense suppression was no more than 0.026. Next, U57G C64G: no more than 0.026; C11G C27A: no more than 0.026.

For A33C G61U G66U, the nonsense suppression was no more than 0.026.

As to G18U C34G, the nonsense suppression is no more than 0.026. On to U22G U57A, for which the nonsense suppression is no more than 0.026. With G15A C81U, the nonsense suppression amounted to 0.0386.

With C11A G26C U55G G85A, the nonsense suppression is no more than 0.026. C12U A62U U70G: the nonsense suppression was no more than 0.026. As to A54C A87G, the nonsense suppression amounted to 0.59. As to C11A G73U, the nonsense suppression is no more than 0.026. Next, G15C G84U: no more than 0.026; C27G A60C G84C: no more than 0.026; C1G U22G A23U A33C U63A: no more than 0.026. Regarding U21G C27U U70A, the nonsense suppression was no more than 0.026. For A13C G66U the value was no more than 0.026; for C1A C3U, no more than 0.026.
